Measurements published in the RNAGym collection of RNA variant scans (doi:10.1093/nar/gkz1192).
The source gives no read counts; variants with many changes may rest on few reads.

B1: CPEB3 Ribozyme (parent)
chain: UAACAGGGGGCCACAGCAGAAGCGUUCACGUCGCAGCCCCUGUCAGAUUCUGGUGAAUCUGCGAAUUCUGCUGUAUAUCUC

Variants of: B1
Assay: self-cleavage, relative activity (ratio to wild type); higher = more cleavage; in vitro, sequencing
How it was run: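 CPEB3 self-cleaving ribozyme mutant libraries were made by rounds of error-prone PCR, barcoded, and transcribed in vitro with T7 RNA polymerase for 5 hours at 37°C. Cleavage occurred during transcription and a 15 min DNase I step before EDTA stop. RNAs were reverse transcribed with template switching and Illumina-sequenced, with DNA sequencing mapping barcodes to variants. Relative activity is the variant's cleaved/total read fraction divided by wild type's (minimum 5 reads), averaged across three batches.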
For A45G G52C U54A A64U U69C U80C, the self-cleavage was 0.52. Work on A45G G52C U58C U69A C81U yielded a self-cleavage of 0.1. In the case of A45G G53C U69A, the self-cleavage is reported as 0.32. A45G G53U U60A showed a self-cleavage of 0.9. A45G G55A U66C showed a self-cleavage of 0.22. A45G G55U U60C U67C A75G showed a self-cleavage of 0.13. In the case of A45G G61C U76A, the self-cleavage is reported as 0.22. A45G G63A U78C gave a self-cleavage of 0.42. A45G U48C A56C U80C showed a self-cleavage of 0.21. Variant A45G U48C A57G C59G U76A has a self-cleavage of 0.1. In the case of A45G U48C A64C A65U A77G, the self-cleavage is reported as 0.08. With A45G U48C C68G U80C the self-cleavage was 0.13. A45G U48C G53U gave a self-cleavage of 0.36. In the case of A45G U48C U54A, the self-cleavage is reported as 0.58. With A45G U48C U54A A65G U67C U72C the self-cleavage was 0.19. A45G U48C U58C gave a self-cleavage of 0.2. For A45G U48C U66A, the self-cleavage was 0.12. For A45G U49A A56G, the self-cleavage was 0.28. A45G U49A A56G U66C U74C showed a self-cleavage of 0.09. With A45G U49A U51C C68A U76C the self-cleavage was 0.4. Work on A45G U49A U54A U67A U72C U80C yielded a self-cleavage of 0.24. A45G U49A U60A gave a self-cleavage of 0.12. For A45G U49C A56G, the self-cleavage was 0.89. In the case of A45G U49C A57G, the self-cleavage is reported as 0.13. A45G U49C A57U U76C U78C gave a self-cleavage of 0.15. In the case of A45G U49C U51A, the self-cleavage is reported as 0.42. In the case of A45G U49C U54C, the self-cleavage is reported as 0.49. A45G U49C U67C U80A showed a self-cleavage of 0.12. In the case of A45G U49C U80C, the self-cleavage is reported as 0.17. In the case of A45G U49G U54C, the self-cleavage is reported as 0.16. In the case of A45G U51A U69C, the self-cleavage is reported as 0.43. Variant A45G U51A U80A has a self-cleavage of 1.06. In the case of A45G U51C G52U U76A, the self-cleavage is reported as 0.95. Variant A45G U51C U54C has a self-cleavage of 0.48. A45G U51C U66A gave a self-cleavage of 0.33. For A45G U51C U67C, the self-cleavage was 0.61. A45G U54A A56G gave a self-cleavage of 0.52. With A45G U54A A57G A64U C79A the self-cleavage was 0.26. For A45G U54A A57G U69C, the self-cleavage was 0.41. A45G U54A A64G A65G U72A showed a self-cleavage of 0.41. For A45G U54A U60A, the self-cleavage was 0.54. Work on A45G U54A U60G yielded a self-cleavage of 0.28. In the case of A45G U54A U67C A77U, the self-cleavage is reported as 0.17. For A45G U54A U78C, the self-cleavage was 0.92. Variant A45G U54A U80C has a self-cleavage of 0.8. In the case of A45G U54C A56G U67A C68U, the self-cleavage is reported as 0.32. In the case of A45G U54C U74C, the self-cleavage is reported as 1.17. With A45G U54C U78C the self-cleavage was 0.75. A45G U58A U72C gave a self-cleavage of 0.2. A45G U58A U72C U74C showed a self-cleavage of 0.21. Variant A45G U58C A64G A65G U67C G70A has a self-cleavage of 0.13. In the case of A45G U58C A64G U76A, the self-cleavage is reported as 0.14. Work on A45G U58G A77G U80C yielded a self-cleavage of 0.12. A45G U60A G61C showed a self-cleavage of 0.27. A45G U60C A65G U69A gave a self-cleavage of 0.12. In the case of A45G U60C U67A, the self-cleavage is reported as 0.6. For A45G U60C U67A U69A, the self-cleavage was 0.2. With A45G U66C U67A the self-cleavage was 0.22. Work on A45G U67C U72C yielded a self-cleavage of 0.29. In the case of A45G U69C G70C U78C, the self-cleavage is reported as 0.24. A45G U69C U76A U80A gave a self-cleavage of 0.31. In the case of A45G U69C U80C, the self-cleavage is reported as 0.24. A45G U76C U80C showed a self-cleavage of 1.17. With A45U A47C U48C A57G the self-cleavage was 0.12. With A45U A47G C50A the self-cleavage was 0.4. Work on A45U A47G C68U U69A U78C yielded a self-cleavage of 0.11. Variant A45U A47G C71A has a self-cleavage of 0.27. For A45U A47G G63U U66C, the self-cleavage was 0.21. For A45U A47G U48C U54C, the self-cleavage was 0.13. Variant A45U A47G U66C has a self-cleavage of 0.2. With A45U A47G U72C the self-cleavage was 0.55. A45U A47U A56G A77G gave a self-cleavage of 0.13. With A45U A47U U48C U80C the self-cleavage was 0.05. A45U A56G A64G G73A showed a self-cleavage of 0.67. A45U A56G G63A gave a self-cleavage of 0.36. With A45U A56G U58G U78C the self-cleavage was 0.07. A45U A56U A64G A65G U78C showed a self-cleavage of 0.13. Variant A45U A56U U66A U72C U78C has a self-cleavage of 0.14. A45U A57G C62U U74G gave a self-cleavage of 0.21. With A45U A64G U67A the self-cleavage was 0.18. In the case of A45U A64U U66C U78C, the self-cleavage is reported as 0.12. A45U A65G C68A showed a self-cleavage of 0.28. A45U A65G C68U gave a self-cleavage of 0.38.
